Reference: PMC11947619, “Molecular mechanism of Mad2 conformational conversion promoted by the Mad2‐interaction motif of Cdc20” (Protein Science : A Publication of the Protein Society, 2025)

B1: C-Mad2^WT:Cdc20^MIM (complex)
chain: not shown
peptide: FDVEEAKILRLSGKPQNAPEGYQNRLKVLY
notes: Mad2, human, wild type, as m1, in the closed state; also called C-Mad2:Cdc20^MIM
B2: C-Mad2^WT:Mad1^MIM (complex)
chain: not shown
peptide: RALQGDYDQSRTKVLHMSLNPT
notes: Mad2, human, wild type, as m1, in the closed state; Formed beforehand and used as the partner of O-Mad2^WT; also called C-Mad2:Mad1^MIM; source: unlabeled

What was measured:
[1] = target: the molecule itself; experiment: SEC-MALS; 100 μL Mad2 sample at 300 μM on Superdex 75 10/300 GL increase, 4 °C, 20 mM HEPES pH 7.0, 100 mM NaCl, 1 mM TCEP, 5% D2O, 0.5 mL/min
C-Mad2^WT:Cdc20^MIM = target: B1; experiment: NMR (2D 1H,15N HSQC before and after adding the partner); 300 μM samples, 950 MHz, 25°C, 20 mM HEPES pH 7.0, 100 mM NaCl, 1 mM TCEP, 5% D2O; in dimeric samples only one monomer isotopically labeled; Cdc20^MIM-123-152 at two-fold molar excess; details: both partners purified
C-Mad2^WT:Mad1^MIM = target: B2; experiment: SEC-MALS; 100 μL Mad2 sample at 300 μM on Superdex 75 10/300 GL increase, 4 °C, 20 mM HEPES pH 7.0, 100 mM NaCl, 1 mM TCEP, 5% D2O, 0.5 mL/min; details: both partners purified
C-Mad2^WT:Mad1^MIM, sequence (Q13257 whole entry): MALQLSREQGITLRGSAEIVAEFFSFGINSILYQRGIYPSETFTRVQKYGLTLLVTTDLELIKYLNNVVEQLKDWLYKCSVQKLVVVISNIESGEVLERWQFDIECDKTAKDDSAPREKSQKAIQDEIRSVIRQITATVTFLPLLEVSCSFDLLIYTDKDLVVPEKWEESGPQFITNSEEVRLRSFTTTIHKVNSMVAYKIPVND

C-Mad2^WT:Cdc20^MIM, sequence (Q13257 whole entry): as above

Binder: B1
- stoichiometry N [1]: 2

Binder: B2
- binding result (C-Mad2^WT:Cdc20^MIM): binds

- binding result (C-Mad2^WT:Mad1^MIM): binds
B3: human wild-type Mad2 (natural protein)
chain: not shown
notes: Mad2, human, wild type; limits follow from Mad2^Δβ7/β8 ([…]), made from this construct by deleting […]; Tag is followed by a TEV site; 15N-labelled for NMR; Expressed and kept cold as the open state (O-Mad2); Construct described in Fischer et al. 2022; also called Mad2^WT; O-Mad2^WT; source: E. coli BL21 Star (DE3) with pRARE, purified

Each block holds one binder with its values, some of them ahead of it.
